Consider 110 compounds from PubChem BioAssay AID488969 (Vanderbilt High Throughput Screening Facility, 2010).

The full ranking holds about 110,000 compounds; the median of “z-score” is about -0.1, and the highest 2% start at about 2. The list shows a part of the results. Calls of active or inactive are those of the source.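 The calls were made as follows: active = z-score in the third read window above 3 or below -3; inactive = the rest.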

The target in the assay is Metabotropic glutamate receptor 8 (Rattus norvegicus) (UniProt P70579). Briefly: mGluR8 Gi/Go-coupled signaling modulation – cell-based, rat, thallium flux, HTS, primary screen (AID 488969). Particulars: HEK293 rat mGluR8, GIRK (G protein-gated inwardly rectifying potassium channel) thallium flux, FluoZin2; at 10 µM; stronger effect = higher value; submaximal glutamate (EC20) added with thallium.
Sequence of UniProt P70579 (P70579 whole entry, looked up): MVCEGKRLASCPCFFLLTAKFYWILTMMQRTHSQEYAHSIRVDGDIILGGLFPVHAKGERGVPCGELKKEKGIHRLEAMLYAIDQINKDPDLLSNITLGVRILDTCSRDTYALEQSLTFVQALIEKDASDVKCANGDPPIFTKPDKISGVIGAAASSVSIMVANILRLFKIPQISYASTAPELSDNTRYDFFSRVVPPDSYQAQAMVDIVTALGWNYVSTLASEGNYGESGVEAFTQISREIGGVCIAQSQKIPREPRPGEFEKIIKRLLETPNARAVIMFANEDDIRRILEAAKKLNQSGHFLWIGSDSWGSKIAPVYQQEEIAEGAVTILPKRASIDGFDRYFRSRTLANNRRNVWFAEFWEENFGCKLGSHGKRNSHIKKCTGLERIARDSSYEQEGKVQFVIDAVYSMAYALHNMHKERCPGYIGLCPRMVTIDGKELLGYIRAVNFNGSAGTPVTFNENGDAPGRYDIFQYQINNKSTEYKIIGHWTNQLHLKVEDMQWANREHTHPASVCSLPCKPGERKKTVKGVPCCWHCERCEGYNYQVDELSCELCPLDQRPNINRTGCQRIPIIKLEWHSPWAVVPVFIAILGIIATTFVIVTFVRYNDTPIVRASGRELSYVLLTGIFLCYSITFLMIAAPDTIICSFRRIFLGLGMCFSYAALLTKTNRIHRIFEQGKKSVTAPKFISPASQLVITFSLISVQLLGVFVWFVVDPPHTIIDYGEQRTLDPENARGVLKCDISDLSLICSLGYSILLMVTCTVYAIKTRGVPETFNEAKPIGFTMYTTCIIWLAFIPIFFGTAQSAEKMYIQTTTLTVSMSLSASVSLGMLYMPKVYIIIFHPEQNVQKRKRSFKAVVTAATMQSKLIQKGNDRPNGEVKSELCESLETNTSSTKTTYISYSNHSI
`CNc1oc(C)nc1S(=O)(=O)c1ccc(C)cc1` yielded a z-score of -0.153.

Compound `Cc1ccc(OCCCNC2CCCC2)cc1` had a z-score of -0.0441.

For the compound `O=S(=O)(c1cccc(S(=O)(=O)N2CCOCC2)c1)N1CCCCC1`, the z-score is -0.241.

The compound `COc1ccc(CCNC(=O)CSc2nc(-c3ccco3)cc(C(F)(F)F)n2)cc1OC` gave a z-score of 1.06.

The compound `Cc1nc(SCC(=O)NCc2ccco2)c2c3c(sc2n1)CCCC3` came in with a z-score of -0.181.

As for `CCCCCn1c(SCCOCC)nc2c1c(=O)[nH]c(=O)n2C`, the z-score was -0.233.

The compound `CN(C)CCCNCCCNC(=O)c1ccccn1` gave a z-score of -0.205.

In turn, `CCCCN(CCCC)S(=O)(=O)c1ccc(SCC(=O)OCC)c([N+](=O)[O-])c1` gave a z-score of -0.868.

For `Cc1cc(C)nc(NC2=NCCN2C(=O)Nc2ccc(Cl)c(Cl)c2)n1`, the z-score is -0.403.

In the case of `O=C(CSc1nc(-c2ccccc2)cs1)NC(=O)NCc1ccco1`, the z-score is -0.338.

For the compound `COc1ccccc1C1CN(c2ccc(F)cc2F)N=C1c1cccs1` (stereo not given), the z-score was -0.0531.

`CN(C)S(=O)(=O)c1ccc2nnn(OCC(=O)NC34CC5CC(CC(C5)C3)C4)c2c1` registered a z-score of 0.0619.

With `Cc1cc(-c2ccccc2)nc(Oc2cccc(C(F)(F)F)c2)c1S(C)(=O)=O`, the z-score is 0.172.

Compound `O=C(/C=C/Nc1ccc(F)cc1)c1ccc(Oc2ncccn2)cc1` came in with a z-score of 1.67.

As to `COC(CNC(=O)c1ccc(N2CCC3(CC2)OCCO3)c([N+](=O)[O-])c1)OC`, the z-score turned out to be 0.0204.

Turning to `Cc1ccc(-n2[nH]c3c4c(ccc3c2=O)C(=O)c2ccccc2C4=O)cc1`, the z-score stood at 0.134.

`c1ccc(CSc2ccc(-c3cccs3)nn2)cc1` displayed a z-score of -0.307.

For `CC(=O)NNc1cc(=O)c2c(=O)n(C)c(=O)n(C)c2[nH]1`, the z-score is -0.373.

The compound `CCCC(=O)NCCc1cc2c(C)ccc(C)c2[nH]c1=O` had a z-score of -0.178.

For the compound `COc1ccc(C(C(=O)OC(C)CN(C)C)c2ccccc2)cc1` (stereo not given), the z-score was found to be 0.0462.

The compound `CC(C)COC(=O)c1ccccc1N1C(=O)C2C3CCC(C3)C2C1=O` (stereo not given) came in with a z-score of -0.448.

The compound `COc1ccc(CCNC(=O)c2cnn3c(C(F)F)cc(C)nc23)cc1OC` registered a z-score of -0.247.

In turn, `COc1ccc(C)cc1-n1nnnc1SCn1nnc2ccccc2c1=O` gave a z-score of -0.188.

`CCc1ccc(/C=C/C(=O)c2cc(Br)ccc(=O)c2O)cc1` registered a z-score of 2.17.

On to `CC(C)(C)NC(=O)NC(=O)Cn1ccsc1=N`, for which the z-score stood at 0.0647.

The compound `Cc1cccc(C)c1-n1c(SCC(=O)NCc2ccco2)nc2ccccc2c1=O` had a z-score of -0.305.

`O=C(O)c1ccc(NC(=O)C2(c3ccccc3)CCOCC2)cc1` displayed a z-score of -0.264.

`Cc1ccc2[nH]c(=O)c(C3=NN(C(=O)CCC(=O)O)C(c4cccs4)C3)c(-c3ccccc3)c2c1` (stereo not given): the z-score is -0.213.

For the compound `Cc1ccc2nc(NC(=O)c3ccc(NS(=O)(=O)c4cccs4)cc3)sc2c1`, the z-score was 0.062.

With `Cc1nc2cc(C(=O)OCC(=O)NC3CCS(=O)(=O)C3)ccc2n1-c1ccccc1` (stereo not given), the z-score was -0.113.

`Cc1c(C#N)c(NC(=O)c2cccc(Cl)c2)n(Cc2ccccc2)c1C` came in with a z-score of -0.0717.

The compound `CCCSc1nc(C)cc(C)c1S(=O)(=O)c1ccccc1C` gave a z-score of -0.378.

Compound `O=C(Nc1ccccn1)c1cc(-n2cnnc2)ccc1Cl` displayed a z-score of 0.123.

`Cc1ccccc1NC(=O)N1CCCC1C(=O)NCc1cccs1` (stereo not given) showed a z-score of -0.229.

`O=C(CN1C2CCCC1CC(NC(=O)c1ccccc1)C2)Nc1nccs1` (stereo not given) displayed a z-score of -0.0904.

Compound `CC1=NN(C(N)=S)C(=O)C1N=Nc1ccccc1C` (stereo not given) came in with a z-score of 2.97.

For the compound `COc1ccc(C(=O)Nc2ccc(S(=O)(=O)Nc3nccc(C)n3)cc2)cc1OC`, the z-score is -0.481.

Consider `O=C(NNS(=O)(=O)c1ccc(F)c(Cl)c1)c1cccc(S(=O)(=O)N2CCOCC2)c1`, for which the z-score is -0.0447.

`Cn1c(=O)c2c(ncn2CC(O)CNc2ccc(Cl)cc2)n(C)c1=O` (stereo not given) registered a z-score of 1.26.

For the compound `COc1cccc(-n2c(SCC(=O)O)nnc2-c2cccnc2)c1`, the z-score is -0.336.

In the case of `CC(=O)c1c(N2CCN(c3cccc(Cl)c3)CC2)nc(=S)n(-c2ccccc2)c1C`, the z-score is 0.246.

`CCCc1cc(-c2n[nH]c(=S)n2CC(C)C)cs1`: the z-score is active: 4.16.

For the compound `O=C(COC(=O)c1ccccc1F)c1ccc(-n2nncc2-c2ccco2)cc1`, the z-score is -0.18.

As for `CC/C(O)=C1\C(=O)CC(c2ccccc2)CC1=NC(C)C` (stereo not given), the z-score is -0.434.

`Cc1ccc(C(=O)Nc2ccc(O)c(C(=O)O)c2)o1` yielded a z-score of -0.359.

Take `CC(NS(=O)(=O)c1ccccc1)C(=O)NCc1ccco1` (stereo not given): the z-score was -0.316.

Regarding `CNC(=S)N/N=C(\C)c1cccc([N+](=O)[O-])c1`, the z-score is -0.339.

Regarding `C=CCn1c(P(=O)(O)c2ccccc2)nc2ccccc21`, the z-score is -0.205.

`O=C(CSCc1c(F)cccc1Cl)NCc1cccnc1` registered a z-score of -0.196.

In turn, `CCOC(=O)CSc1nnc2n1C(C)(C)Cc1ccccc1-2` showed a z-score of 0.0272.

With `COc1ccc(C(N)=S)cc1`, the z-score was -0.0844.

Compound `CCOc1ccc(NC(=O)CN(C2CCCCC2)S(C)(=O)=O)cc1` showed a z-score of 0.101.

Regarding `O=C(CCl)NCc1c(Cl)cccc1-n1cccc1`, the z-score is 0.0712.

Turning to `CCCn1nnc(NC(=O)c2cc3ccccc3o2)n1`, the z-score is 0.258.

Compound `Cc1ccc(S(=O)(=O)N2CCOCC2)cc1C(=O)NCc1ccc2c(c1)OCO2` had a z-score of -0.442.

As for `CCOC(=O)c1ccc(NC(=O)c2cc(OC)c(OC)c(OC)c2Br)cc1`, the z-score stood at 0.551.

The compound `CCN(CC)S(=O)(=O)c1ccc(NC(=S)NC(=O)C(C)C)cc1` had a z-score of -0.187.

The compound `O=C(NCCC1=CCCCC1)C(=O)NCc1ccccc1Cl` registered a z-score of -0.0505.

On to `O=C1CC(c2ccc(F)cc2)c2cc3c(cc2N1)CCC3` (stereo not given), for which the z-score is -0.285.

`CCOC(=O)c1cnc(SCc2nc(N)nc(Nc3ccc(OC)cc3)n2)nc1N` showed a z-score of 0.531.

`CCCc1nc(SCC(=O)Nc2cc(C)on2)c2ccccc2n1` showed a z-score of -0.23.

Regarding `COc1cccc(NC(=O)CCN2CCC(C(N)=O)CC2)c1`, the z-score was -0.262.

Turning to `COc1ccc(-c2nn(C)c(=O)c3ccccc23)cc1NC(=O)COc1ccc(C)cc1`, the z-score was -0.898.

Compound `Cc1sc(NC(=O)Cn2nc(C(F)(F)F)cc2C)c(C(=O)OC(C)C)c1C` came in with a z-score of 0.0391.

Consider `CC1=NN(c2nc(-c3ccc(Cl)cc3)cs2)C(=O)C1`, for which the z-score was -0.244.

For the compound `O=C1CC(CCC(=O)NC2CC2)c2ccccc2N1` (stereo not given), the z-score is -0.56.

Take `CC(C)(C)CC(C)(C)NC(=O)CSCC(=O)Nc1ccc2ccccc2c1`: the z-score was -0.11.

Compound `Cc1oc2c(cc(NS(=O)(=O)c3ccc4c5c(cccc35)C(=O)N4)c3ccccc32)c1C(=O)OC(C)C` displayed a z-score of -0.964.

As for `CCOC(=O)N1CCN(C(=O)c2ccccc2N(C)S(C)(=O)=O)CC1`, the z-score was determined as 0.134.

On to `CCOC(=O)C(C)Oc1cccc2c(=O)n(CC(=O)N3CCN(C(=O)OCC)CC3)ccc12` (stereo not given), for which the z-score is -0.125.

In the case of `CCN(CC)S(=O)(=O)c1ccc(OC(C)C)nc1`, the z-score is -0.0988.

Consider `CC(C)COC(=O)c1ccc2c(c1O)C(=O)c1ccccc1C2=O`, for which the z-score amounted to 0.968.

`Cc1ccc(-c2ccc(SCC(=O)N3CCc4ccccc43)nn2)cc1` displayed a z-score of -0.273.

In the case of `COc1ccc(C(=O)Oc2cccnc2)cc1OC`, the z-score is -0.869.

With `S=C1NCCOCCNC(=S)NCCOCCOCCOCCN1`, the z-score was -0.0593.

On to `CCCC(=O)N1CCN(c2ccc(NC(=S)NC(=O)CC)cc2)CC1`, for which the z-score was -0.0482.

As for `CC1=NN(c2ccc(F)cc2)C(=O)C1C(c1cccc(O)c1)c1c(C)[nH]n(-c2ccc(F)cc2)c1=O` (stereo not given), the z-score is -0.0779.

For the compound `N#Cc1c(OCC(=O)c2ccccc2)nc2c(c1-c1ccco1)CCc1ccccc1-2`, the z-score is 0.364.

Turning to `COc1ccc(/C=c2/sc3n(c2=O)NC2(c4ccccc4)N(C)C(=O)N(C)C2(c2ccccc2)N=3)cc1` (stereo not given), the z-score amounted to 0.168.

Consider `Cn1c(N2CCCC2)nc2c1c(=O)n(Cc1ccc(Cl)cc1)c(=O)n2C`, for which the z-score is active: 3.05.

The compound `Cn1c(=O)[nH]c(=O)c2c1nc(N1CCCC1)n2CCSc1nc2ccccc2[nH]1` yielded a z-score of -0.145.

For the compound `COc1ccc2c(c1OC)C(=O)N(c1ncn[nH]1)C2`, the z-score was -0.176.

`COc1cc(/C=N/Nc2nc(Nc3ccc(C)cc3)nc(-n3nc(C)cc3C)n2)cc(OC)c1OC` displayed a z-score of -0.19.

As for `Cc1c(/C=N\NC(=O)c2csc3ccccc23)cnn1C`, the z-score was -0.0977.

`CCC(C)(C(=O)NC1CCCC1)N(C(C)=O)c1ccc(C)cc1` (stereo not given): the z-score is -0.736.

In turn, `COc1ccc(/C=N/NC(=O)c2ccccc2O)cc1Cn1cc(Cl)cn1` came in with a z-score of -0.142.

Compound `O=C(CN1CCN(CC(=O)Nc2ccccc2Cl)CC1)Nc1ccc2c(c1)OCCO2` yielded a z-score of -0.684.

Compound `CCOc1ccc(S(=O)(=O)Nc2cccc(OC)c2)cc1` displayed a z-score of 0.0407.

Take `O=C(NCc1cccs1)c1nc2c(nnn2Cc2ccccc2Cl)c(=O)[nH]1`: the z-score is active: -3.23.

Compound `COc1cccc(-n2c(SCC(=O)NC3CCCCC3)nc3n[nH]c(C)c3c2=N)c1` yielded a z-score of -0.531.

`COC(=O)Nc1sc2c(c1C(N)=O)CCCCCC2` showed a z-score of 0.12.

Take `O=C1CC(c2ccc(S(=O)(=O)NCCOc3ccccc3)cc2)CN1` (stereo not given): the z-score turned out to be 0.129.

As to `Cc1cc(=O)[nH]c(SCc2cc(=O)n3nc(C)sc3n2)n1`, the z-score is -0.453.

On to `COC(=O)c1ccc(C(=O)OC)c(NC(=S)N2CCN(c3cccc(Cl)c3)CC2)c1`, for which the z-score came to 0.0966.

Regarding `CNC(=O)N(O)C1N(C)C(=O)N(Cc2ccccc2)C1(C)C` (stereo not given), the z-score is 0.356.

As to `CCOc1ccc(NC(=O)C2CC(=O)N=C(N)S2)cc1` (stereo not given), the z-score was -0.112.

In turn, `Cc1ccccc1C(=NCCCN(C)C)c1ccccc1C` displayed a z-score of 0.825.

Regarding `O=[n+]1c2c(n([O-])c3ccccc31)CCCC2`, the z-score is -0.139.

The compound `COc1cc(NS(=O)(=O)c2ccc(OC)c(OC)c2)cc(OC)c1` returned a z-score of 0.251.

Turning to `Cc1c(NC(=O)CSc2ccccn2)c(=O)n(-c2ccccc2)n1C`, the z-score is -0.147.

Regarding `O=C(Cn1nnc2ccccc21)N/N=C\c1cccs1`, the z-score came to 0.71.

With `Cc1nn(CCC#N)c(NC(=O)c2ccc(Cl)cc2Cl)c1P(=O)(Nc1ccc([N+](=O)[O-])cc1)N1CCOCC1` (stereo not given), the z-score is -0.0204.

As for `CCOC(=O)N/N=C/c1cc(C)n(-c2ccccc2)c1C`, the z-score is -0.188.

In the case of `Cc1cc(=O)oc2cc(OCC3CC(c4ccc(N(C)C)cc4)=NO3)ccc12` (stereo not given), the z-score is -0.39.

As to `CCOc1ccc2nc(SCC(=O)NC(=O)NCc3ccco3)[nH]c2c1`, the z-score was 0.242.

Turning to `CC(C)COC(=O)c1cccc2c1-c1ccccc1/C2=N\O`, the z-score is -0.108.

Compound `CCC(C)Nc1c2c(nc3c(-c4ccccc4)c(C)nn13)CCC2` (stereo not given) gave a z-score of -1.03.

In turn, `Cc1cc(C)nc(NC(=O)/C=C/c2ccccc2Cl)n1` had a z-score of -0.167.

`COc1ccc2cc(-c3csc(-c4cccnc4)n3)ccc2c1` had a z-score of -0.181.

Take `S=c1[nH]cnc2scc(-c3ccccc3)c12`: the z-score is active: 13.1.
